Consider 48 compounds from PubChem BioAssay AID1508623 (National Center for Advancing Translational Sciences (NCATS), 2021).

The whole screen tested about 48,000 compounds, of which about 450 (0.94%) were called active. About 19% were inconclusive and are not listed. Calls come from the whole dose curve; as a rule, active = well fitted inhibition curve with a large enough effect; inconclusive = small, poorly fitted or top-dose-only effect; inactive = no such curve, though single readings can be large or run the other way. This is one part of the list.

A short description of this experiment: Primary qHTS for Identification of Small Molecule Inhibitors of Huntingtin Promoter Activity. Note: nearly all actives have a fitted effect of over 50% in size. The settings on record: HEK293 HTT promoter firefly luciferase reporter (activity 0% = vehicle and -100% = no light), 24 h; series mostly up to 57.5 µM; activity change, negative = inhibition: at the top concentration. The source says:
Assay Provider: Russell L. Margolis M.D.
Department Neurology, Johns Hopkins University School of Medicine, Baltimore, MD
Huntington's Disease (HD) is a neurodegenerative disorder caused by a CAG repeat expansion in exon 1 of huntingtin (HTT). While there are currently no disease-modifying treatments for HD, recent efforts have focused on development of nucleotide-based therapeutics to lower HTT expression. As an alternative to siRNA or oligonucleotide methods, we hypothesized that suppression of HTT expression might be accomplished by small molecules that either (1) directly decrease HTT expression by suppressing HTT promoter activity or (2) indirectly decrease HTT expression by increasing the promoter activity of HTT-AS, the gene antisense to HTT that appears to inhibit expression of HTT.
We developed and employed a high throughput screen for modifiers of HTT and HTT-AS promoter activity using luminescent reporter HEK293 cells; of the 52,041 compounds tested, we identified 898 replicable hits. We used a rigorous stepwise approach to assess compound toxicity and the capacity of the compounds to specifically lower huntingtin protein in 5 different cell lines, including HEK293 cells, HD lymphoblastoid cells, mouse primary neurons, HD iPSCs differentiated into cortical-like neurons, and HD hESCs. We found no compounds which were able to lower huntingtin without lowering cell viability in all assays, though the potential efficacy of a few compounds at non-toxic doses could not be excluded.
SEQUENCE No. (1, 2, 3, etc.); […] (e.g., Cells, Incubation, Reagent, etc.); VALUE and DESCRIPTION.
1; Reagent; 4 uL; 2,500 Hek293 luciferase reporter cells per wells
3; Compound; 23 nL; Control inhibitor / compound library
5; Reagent; 2.5 uL; Firefly Luc reagent; Dual-Glo Luciferase Reporter Assay System (Promega)
6; Time; 10 min; room temperature incubation
7; Detection; Luminescence; FLuc
NOTES (numbers refer to sequence above)
1; High-throughput screening, measuring luminescence from a Hek293 luciferase reporter, was performed in 1,536 well white-walled tissue-culture treated plates. 2,500 cells were plated in 4 µL of Opti-MEM per well using a Multidrop Combi Reagent Dispenser (ThermoFisher).
2; Assay plates were cultured for 24 hours.
3; Control inhibitor (PTC124; final concentration of 50 uM) and compound library (at final concentrations of 460 nM - 57.5 uM) were added to the assay plate using the Kalypsis Pintool Robotic System equipped with 1536 pinheads.
4; Cells were then incubated for 24 hours at 37 degrees C prior to luminescence measurements.
5; In all cases, luminescence was measured using the Dual-Glo Luciferase Reporter Assay System (Promega) following the manufacturer's instructions.
6; Room temperature incubation.
7; Luminescence signal was obtained using the PerkinElmer ViewLux plate reader. Results were normalized to vehicle control (0% activity) and zero RLU (-100% activity).
With `Oc1ccc(CCNCCCCCCNCCc2ccccc2)cc1O`, the “activity change, negative = inhibition” value was inactive: 3.24%. With `CC(=O)c1ccc(NC(=O)NCCc2c[nH]c3ccccc23)cc1`, the “activity change, negative = inhibition” value was inactive: 18.7%. On to `CCCCCn1c(=O)[nH]c2cc(C(=O)Nc3ccc(F)cc3)ccc2c1=O`, for which the “activity change, negative = inhibition” value is inactive: 8.35%. The result for `CCOC(=O)C1CCN(S(=O)(=O)c2cc(-c3cc(C)no3)ccc2C)CC1` reads inactive: -28.3%; that for `Cc1cccc(-c2nc3scc(CCNC(=O)c4ccccc4Cl)n3n2)c1`, inactive: -13.1%. As for `Cc1cccc(NC(=O)CSc2nnc(CNC(=O)c3c(F)cccc3Cl)o2)c1C`, the “activity change, negative = inhibition” value is inactive: -0.974%. For `CC(C)c1nn2c(=O)cc(COC(=O)c3ccc(NC(=O)CCc4ccccc4)cc3)nc2s1`, the “activity change, negative = inhibition” value is inactive: 23.6%. Regarding `CC1CCN(CCNC(=O)c2ccc(Cn3c(SCc4ccccc4)nc4cccnc43)cc2)CC1`, the “activity change, negative = inhibition” value was inactive: 11.6%. As to `CC(C)c1ccc(NC(=O)c2ccc(NC(=O)CCS(=O)(=O)c3cccs3)cc2)cc1`, the “activity change, negative = inhibition” value is inactive: -18.7%. `Cc1ccc(CCNc2nc3c(S(=O)(=O)c4ccc(C)cc4)nnn3c3ccsc23)cc1`: the “activity change, negative = inhibition” value is inactive: 0.466%. As for `Cc1ccc(-n2ncc3c(NCCCc4ccccc4)ncnc32)cc1C`, the “activity change, negative = inhibition” value was inactive: 2.43%. The value for `Cc1c(NC(=O)c2sc3c([N+](=O)[O-])cccc3c2Cl)cccc1-c1nc2ccccc2o1` was inactive: 9.09%. Take `Cc1ccc(-c2c3c(=O)n(C)c(=O)n(C)c3c3c(C(F)(F)F)nc4ccccc4n23)cc1`: the “activity change, negative = inhibition” value is inactive: -24.7%. Consider `CCS(=O)(=O)N1CC(=O)N(c2cccc(C)c2C)C(C)(C(=O)NC2CCCCC2)C1` (stereo not drawn), for which the “activity change, negative = inhibition” value is inactive: 3.89%.

Consider `CCOC(=O)c1[nH]c(C)c(CCC(=O)Nc2ccc(N(CC)CC)cc2C)c1C`, for which the “activity change, negative = inhibition” value was inactive: -11.4%. Consider `CCc1ccc(CNC(=O)CCN2C(=O)COc3ccccc32)cc1`, for which the “activity change, negative = inhibition” value is inactive: -17.9%. As to `[O-][n+]1cccc(CO)c1`, the “activity change, negative = inhibition” value was inactive: 9.32%. The result for `COc1cc(NC(=O)Cn2c(C)cc3ccccc3c2=O)cc(OC)c1OC` reads inactive: -2.37%; that for `COc1cc(OC)cc(C(=O)Nc2c(C(=O)Nc3ccc(F)cc3)oc3ccccc23)c1`, inactive: 3.93%; that for `COC(=O)c1cc2oc(C)cc2n1CC(=O)Nc1ccc(C)cc1C`, inactive: -5.9%.

Consider `O=C(Cn1c(=O)n(Cc2ccccc2)c(=O)c2oc3ccccc3c21)Nc1ccc(Cl)cc1`, for which the “activity change, negative = inhibition” value was inactive: -2.12%. The value for `Cc1ccc(/C=C/c2onc(C)c2S(=O)(=O)N2CCC(C(=O)N3CCOc4ccccc43)CC2)cc1` was inactive: -26.2%.

On to `Oc1ccc(Cl)cc1Nc1nc2ccccc2n2cnnc12`, for which the “activity change, negative = inhibition” value is inactive: -14%. For `CCOC(=O)c1ccc(NC(=O)Cc2ccc(-n3c(CC)nc4cccnc43)cc2)cc1`, the “activity change, negative = inhibition” value was inactive: -13.1%. The result for `NC(=O)c1cc(S(=O)(=O)N2CCCCC2)cs1` reads inactive: -9.23%; that for `O=C(CCS(=O)(=O)c1ccc2c(c1)NC(=O)CO2)Nc1cccc(C(F)(F)F)c1`, inactive: -4.86%; that for `CCNC(=O)CC1C(=O)N(c2ccc(C)cc2)C(=O)N1Cc1ccc(C)cc1` (stereo not drawn), inactive: -10.9%. Take `COc1ccc(NC(=O)Cn2nnc(C(=O)NCc3ccccc3Cl)c2N)cc1Cl`: the “activity change, negative = inhibition” value is inactive: -29.2%. For the compound `CCC(=C(c1ccccc1)c1ccc(OCCN(C)C)cc1)c1ccccc1`, the “activity change, negative = inhibition” value is inactive: -16.1%. As for `CCn1cc(S(=O)(=O)c2cc(C)cc(C)c2)c(=O)c2cc(F)c(N3CCC(C)CC3)cc21`, the “activity change, negative = inhibition” value was inactive: -20.5%. For `CCOc1ccc(N(C(=O)c2ccc(C)cc2)S(=O)(=O)c2ccc3c(c2)n(C)c(=O)n3C)cc1`, the “activity change, negative = inhibition” value was inactive: -0.418%.

With `Cc1ccc2cccc(NC(=O)c3ccc(-c4cc(Cl)ccc4Cl)o3)c2n1`, the “activity change, negative = inhibition” value is inactive: -18.3%. On to `O=C(NCc1ccc(Cl)cc1)c1cc2ccccc2o1`, for which the “activity change, negative = inhibition” value was inactive: -8.25%. In the case of `Cc1ccc(C)n1-c1nnc(N2CCCC(C(=O)NCc3ccc(F)cc3)C2)s1` (stereo not drawn), the “activity change, negative = inhibition” value is inactive: -15.3%. For the compound `CCN(CC)C(=O)Cn1c(=O)n(CCCCCC(=O)NCc2ccccc2Cl)c(=O)c2sccc21`, the “activity change, negative = inhibition” value is inactive: -9.13%. For `COc1ccc(OC)c(NC(=O)c2ccc3c(c2)c(C)c(C)n3Cc2ccc(F)cc2)c1`, the “activity change, negative = inhibition” value was inactive: -10.5%.

On to `O=C(NCc1cccc(Br)c1)c1cccn1-c1nnc(N2CCCCC2)s1`, for which the “activity change, negative = inhibition” value was inactive: -44.3%.

For `Cc1ccc(NC(=O)Cn2c(C)cc(C)c(C#N)c2=O)cc1F`, the “activity change, negative = inhibition” value was inactive: 11.2%. For `Cc1cc(C)c(/C=C/c2onc(C)c2S(=O)(=O)N2CCC(C(=O)N3CCN(c4ccc(Cl)cc4)CC3)CC2)c(C)c1`, the “activity change, negative = inhibition” value was inactive: -9.09%.

As for `Cc1ccc(C(=O)Nc2nc3n(n2)C(c2ccccc2)C=C(c2ccccc2)N3)cc1` (stereo not drawn), the “activity change, negative = inhibition” value is inactive: -17.1%.

Take `COc1ccc(-c2nc3ccccc3s2)cc1NC(=O)c1cc2ccccc2o1`: the “activity change, negative = inhibition” value is inactive: 6.13%. In the case of `NC(=O)OCC(COC(N)=O)c1ccccc1`, the activity change, negative = inhibition result was “inactive”. The value for `CN1CCN(C(c2cccc(Br)c2)c2sc3nc(-c4ccco4)nn3c2O)CC1` (stereo not drawn) was inactive: -1.41%. Take `CCC(=O)N1CCc2cc(Br)cc(S(=O)(=O)CCC(=O)NCCc3ccccc3Cl)c21`: the “activity change, negative = inhibition” value is inactive: -3.62%. Take `Cc1ccnc(NS(=O)(=O)c2ccc(N)cc2)n1`: the “activity change, negative = inhibition” value is inactive: 0.042%. Turning to `CCOc1ccc(-c2nonc2NC(=O)c2ccc(C)cc2)cc1OCC`, the “activity change, negative = inhibition” value was inactive: -3.35%. Regarding `O=C(Cc1csc2ccccc12)NCc1ccccc1F`, the “activity change, negative = inhibition” value is inactive: 26.2%. Take `CCOc1ccc(-c2nc(SCC(=O)Nc3ccc4c(c3)OCCO4)c(-c3ccc(F)cc3)[nH]2)cc1`: the “activity change, negative = inhibition” value was inactive: -19.6%.
